Data: PubChem BioAssay AID1347120 (National Center for Advancing Translational Sciences (NCATS), 2019)
Screen size: about 390,000 compounds; about 930 (0.24%) were called active. The shares of active, inactive and inconclusive entries below differ from those in the screen. Calls follow the shape of the dose curve; as a rule, active = well fitted activation curve with a large enough effect; inconclusive = small, poorly fitted or top-dose-only effect; inactive = no such curve, though single readings can be large or run the other way. A potency beside an inconclusive call is a rough fit, not a confirmed value.

assay: qHTS for Suppressors of FUS Proteinopathy: Primary screen using FUS-linked yeast assay; also: nearly all actives have a fitted effect of over 55% in size;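 as to growth rescue (activation): plate controls were DMSO vehicle for no effect and reference control for full effect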; details: S. cerevisiae FUS-expressing, OD600, 24 h; Potency: growth rescue; growth rescue (activation): at 76.6 µM (top of the series)
Method in brief: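 Galactose (2%) drives FUS expression in yeast precultured in raffinose; seeding density OD 0.005. Test compounds incubated 24hr at 30C and 99% humidity before absorbance at 600 nm was measured.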
Potency is read from the fitted curve at half-maximal effect; tags tell the direction and shape of the fitted curve.

Structure (SMILES) | Potency | growth rescue (activation)
COc1ccc(CCNc2cc(C)nc3c(-c4ccc(Cl)cc4)cnn23)cc1OC | inconclusive: 50.1 µM [activator, single point] | 
O=C(NC1CCCCN(Cc2ccc(Cl)cc2)C1=O)c1ccc(Br)cc1 (stereo unspecified) | inconclusive: 31.6 µM [activator, single point] | 
COc1ccc(CN(C)C(=O)COC(=O)c2c(C)nn(-c3ccc(F)cc3)c2Cl)cc1 | inconclusive: 28.2 µM [activator, single point] | 
O=C(O)CSc1cccc[n+]1[O-] |  | inactive: 7.83%
COc1ccc(NC(=O)Nc2ccc(F)c(Cl)c2)cc1 |  | inactive: -31%
Cc1cc(C)c(C(=O)COC(=O)c2ccc(NC(=O)CC#N)cc2)cc1C | inconclusive: 22.4 µM [activator, partial curve, poor fit] | 
CCOC(=O)[C@]12CCCC=C1N(CCc1ccc(OC)c(OC)c1)C(=O)[C@H](CC(=O)NCCc1ccccc1OC)C2 | inconclusive: 14.1 µM [activator, partial curve] | 
Cc1nc([N+](=O)[O-])c(Br)n1CC(=O)c1ccc2ccccc2c1 | active: 14.1 µM | 
CC(C)(C)NC(=O)C(CCc1ccccc1)n1c(=O)c(-c2cc3ccccc3[nH]2)nc2ccccc21 (stereo unspecified) | inconclusive: 15.8 µM [activator, partial curve, poor fit] | 
COC(=O)[C@]12C[C@H](CC(=O)NCc3ccccc3)C(=O)N(CCC3=CCCCC3)C1=C[C@H](C1CCCC1)O[C@@H]2C | inconclusive: 35.5 µM [activator, single point] | 
CCN(CC)S(=O)(=O)c1ccc(NC(=O)CSc2ncnc3ccccc23)cc1 | inconclusive: 22.4 µM [activator, single point] | 
O=c1c(-c2ccccc2)c(O)nc2ccccn12 | inconclusive: 8.91 µM [activator, full curve, poor fit] | 
CCOc1ccc(-n2c(C)c(C(C)=O)c3cc(OC(C)=O)ccc32)cc1 |  | inactive: -3.15%
N#Cc1nc(-c2cccs2)oc1NCCc1ccccc1 |  | inactive: 9.86%
Cc1noc(C)c1COc1cccc(C(=O)OC(C)C(=O)Nc2ccc3c(c2)OCO3)c1 (stereo unspecified) | inconclusive: 50.1 µM [activator, single point] | 
CCc1cc2c(=O)c(-c3nc4ccccc4n3C)c(COCC(=O)O)oc2cc1OC(=O)C(C)(C)C | inconclusive: 28.2 µM [activator, single point] | 
COc1ccccc1N(CC(=O)NCCSCc1ccc(C)cc1)S(=O)(=O)c1ccccc1 |  | inactive: 25.5%
CCN(CC)C(=O)c1cccc(NC(=O)CCc2nc3sc4c(c3c(=O)[nH]2)CCCC4)c1 | inconclusive: 31.6 µM [activator, partial curve, poor fit] | 
O=c1[nH]c(C2CCN(S(=O)(=O)c3cccc(Cl)c3)CC2)nc2c1nnn2Cc1ccccc1 | inconclusive: 50.1 µM [activator, single point] | 
C#CCNC(=O)C[C@H]1C[C@@]2(C(=O)OC)C(=C[C@H](C(C)(C)C)O[C@@H]2C)N(Cc2ccco2)C1=O |  | inactive: 40.3%
CC(C)CCn1c(Oc2ccccc2Cl)nc2c1c(=O)n(C)c(=O)n2C | inconclusive: 39.8 µM [activator, single point] | 

Structure (SMILES) | Potency | growth rescue (activation)
O=C(NCCc1ccccc1)c1nc2nc(-c3cccs3)cc(C(F)(F)F)n2n1 |  | inconclusive: 64.8% [activator]
CCc1ccccc1N(CC)C(=O)c1c(C)oc2ncnc(N3CCOCC3)c12 |  | inactive: -2.56%
N#CC1=C(N)N(c2ccccc2)C2=C(C(=O)CCC2)C1c1ccsc1 (stereo unspecified) | inconclusive: 28.2 µM [activator, single point] | 
Cc1ccc(S(=O)(=O)N2C[C@H]3C(=O)C[C@@H](c4ccccc4)N(S(=O)(=O)c4ccc(C)cc4)[C@H]3C[C@H]2c2ccccc2F)cc1 | inconclusive: 5.01 µM [activator, single point] | 
CCc1noc(C)c1C(=O)Nc1nc(-c2cccs2)cs1 |  | inactive: 19.9%
Cc1ccc(NC(=O)CSCC(=O)Nc2ncc3c(n2)CC(c2ccco2)CC3=O)cc1 (stereo unspecified) | inconclusive: 35.5 µM [activator, single point] | 
COc1ccc(-c2c(Cc3ccccc3)nc(NC(=O)c3ccccc3)n2Cc2ccc(OC)cc2OC)cc1 | inconclusive: 28.2 µM [activator, single point] | 
CC(=O)Nc1cc(OC(C)=O)c2nonc2c1OC(C)=O |  | inactive: 22.9%
Cc1ccc(NC(=O)Cn2cc(S(=O)(=O)c3ccc(C)cc3)c(=O)c3cc4c(cc32)OCO4)cc1 |  | inactive: 0.246%
Cc1ccc(-c2nc(SCCOc3ccccc3C)n3[nH]c(=O)cc3n2)cc1 |  | inactive: 5.53%
CCOc1ccc(C(=O)C(c2ccccc2)N2CCOCC2)cc1 (stereo unspecified) | inconclusive: 31.6 µM [activator, single point] | 
CC1(OC(=O)c2ccc(Cl)nc2)C(=O)C=C2C=C3CCCN3C=C2C1=O (stereo unspecified) | inconclusive: 35.5 µM [activator, partial curve, poor fit] | 
COc1ccc(-c2ccc(CN3C(CC(C)C)C(=O)N(Cc4cn(CC5CCCCC5)nn4)CCS3(=O)=O)cc2)cn1 (stereo unspecified) | inconclusive: 25.1 µM [activator, partial curve, poor fit] | 
C=CCN(C(=O)CSc1nc2ccsc2c(=O)n1Cc1ccc(C(=O)O)cc1)c1ccccc1 | inconclusive: 31.6 µM [activator, single point] | 
O=C(CCS(=O)(=O)c1cc(Br)cc2c1N(C(=O)C1CC1)CC2)NCc1ccc(Cl)cc1 | active: 28.2 µM | 
COc1cc(CNC(=O)Nc2nc(C(N)CCc3ccccc3)cs2)cc(OC)c1OC (stereo unspecified) | inconclusive: 44.7 µM [activator, single point] | 
Cc1ccc(CSc2cn(CC(=O)N3CCCC3)c3ccccc23)cc1 | inconclusive: 50.1 µM [activator, single point] | 
COC(=O)c1ccc2c(=O)n(CCCCCC(=O)NCc3ccc(Cl)cc3)c(=O)[nH]c2c1 | inconclusive: 50.1 µM [activator, single point] | 
CC(C)(C)c1ccc(C(=O)NCC(c2cccs2)S(=O)(=O)c2ccccc2)cc1 (stereo unspecified) | inconclusive: 35.5 µM [activator, single point] | 
Cc1cc(C)n(CCOc2ccc(Br)cc2)n1 | inconclusive: 44.7 µM [activator, single point] | 
O=C(COc1ccc([N+](=O)[O-])cc1)Nc1ccc(NC(=O)c2ccccc2)cc1 | inconclusive: 39.8 µM [activator, partial curve, poor fit] | 

Structure (SMILES) | Potency | growth rescue (activation)
COc1ccc(CC(=O)NCCC2=CCCCC2)cc1 | inconclusive: 1.58 µM [activator, full curve, poor fit] | 
CCOC(=O)[C@H]1[C@H]2COc3ccc(C)cc3[C@@H]2N2C(=O)c3cc(Cl)ccc3NC(=O)[C@@]12C | inconclusive: 35.5 µM [activator, single point] | 
CCCC1CCC2(CCCN2CCOC(=O)Nc2ccc(Br)cc2)CC1 (stereo unspecified) |  | inactive: 26.6%
Cc1ccc2c(c1)-c1cc(C)nn1C(c1cc(Br)ccc1O)N2 (stereo unspecified) |  | inactive: 1.91%
COc1cc(C(=O)NCC(=O)OCC(=O)c2cccc3ccccc23)cc(OC)c1OC | active: 12.6 µM | 
Cc1ccc(-n2c(SCc3cccc(F)c3)nc3[nH]ncc3c2=O)cc1C | inconclusive: 25.1 µM [activator, single point] | 
Cc1cccc(NC(=O)CNC(=O)c2ccccc2Cl)n1 |  | inactive: 18.6%
COC(=O)[C@]12C[C@H](CC(=O)NCCC(C)C)C(=O)N(CCc3ccc(OC)c(OC)c3)C1=C[C@H](C1CCCC1)O[C@@H]2C | inconclusive: 22.4 µM [activator, single point] | 
Cc1cc(OC(C)C(=O)NCCc2c[nH]c3ccccc23)c2c(C)cc(=O)oc2c1 (stereo unspecified) | inconclusive: 35.5 µM [activator, single point] | 
CCCNC(=O)c1ccc(N2CCC3(CC2)CC(c2cccc(Br)c2)=NO3)c(NC(=O)c2ccc(Br)cc2)c1 | inconclusive: 28.2 µM [activator, single point] | 
O=c1c(-c2ccco2)nc2ccccc2n1C(c1ccccc1)c1nc2ccccc2[nH]1 (stereo unspecified) | inconclusive: 20 µM [activator, partial curve, poor fit] | 
CCN(CC)S(=O)(=O)c1ccc(N2CCN(c3ccccc3OC)CC2)c(N)c1 | inconclusive: 17.8 µM [activator, partial curve, poor fit] | 
COC(=O)[C@@]12C[C@@H](CC(=O)NCCc3ccccc3OC)C(=O)N(Cc3ccccc3)C1=CCC(C)(C)C2 | inconclusive: 11.2 µM [activator, partial curve] | 
CC1=CC2=NC(=O)/C(=C\c3cccn3CCOc3ccccc3C)C(=N)N2O1 | inconclusive: 31.6 µM [activator, single point] | 
CCOc1ccc(N2CC(NC(=O)C(=O)c3c[nH]c4ccccc34)CC2=O)cc1 (stereo unspecified) | inconclusive: 50.1 µM [activator, single point] | 
O=C(COc1ccc2c3c(c(=O)oc2c1)CCCC3)NCc1ccncc1 | inconclusive: 2.82 µM [activator, full curve] | 
O=C(NCCc1ccccc1)c1cccc2c(-c3cccnc3)coc12 | inconclusive: 31.6 µM [activator, single point] | 
CC(C)(C)c1ccc(C(=O)OCCNC(=O)c2c(Cl)nc3ccccn23)cc1 | inconclusive: 50.1 µM [activator, single point] | 
COc1ccc(C=O)cc1C1=CC(=O)C[C@H](c2ccc(Cl)cc2)C1 | inconclusive: 35.5 µM [activator, single point] | 
